The other results are listed elsewhere or left out.
T1: UNK ZnF1-3 (human, UniProt Q9C0B0 31-174)
T1 sequence: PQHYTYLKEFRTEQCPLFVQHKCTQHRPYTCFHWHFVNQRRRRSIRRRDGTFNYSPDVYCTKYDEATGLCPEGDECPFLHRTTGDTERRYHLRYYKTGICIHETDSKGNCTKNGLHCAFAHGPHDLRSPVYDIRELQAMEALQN

B1: chr11:20128097:20128098:-_ENSMUSG00000044066_ENSMUST00000050611|mus_hu|motif|central (ssRNA)
RNA: GGGAGUUCUACAGUCCGACGAUCCCAACUCUAGGUUUUCAAGAAUGUUUUACAUACAGGUUUAUAAUUGACAAUUAUUUGCGGGAGUGGUUUUUCCCUUUUAAAGUCUCAGUGUGUAUGGAACUAAGAUGAUUAAUAUGGCAACAACAGAGGAUUGAGCAUCA
B2: chr17:88398918:88398919:-_ENSMUSG00000005371_ENSMUST00000130379|mus_hu|FALSE|FALSE (ssRNA)
RNA: GGGAGUUCUACAGUCCGACGAUCAUGAAUUUUGUUAUGCCGAACAAUUGGACAACUGUUUGUCCUAAUUUGAAUUCCUGCUAAUGCAUUGCCAUAAAUGUCAUUUCCUUCAAUAAGGCCUCGUCCAUCACCAAAGAUGUAAACCAACAGAGGAUUGAGCAUCA
B3: 144007290_144007410_2102_3pUTR_ENSMUSG00000029587_ENSMUST00000032591|mouse|control|control (ssRNA)
RNA: GGGAGUUCUACAGUCCGACGAUCGAAGGCUUUCCCACACUCGUUACACUCGAAGGGCUUCUCUCCCGAGUGGAUCCUGUGAUGGAUAGUGAGAUAAGACAUCUGGGAGAAGCAUUUCCCACACUCGUAACACUCGUAGGCUUUCAACAGAGGAUUGAGCAUCA
B4: 31378824_31380206_791_CDS_ENSMUSG00000021957_ENSMUST00000022529|mouse|control|control (ssRNA)
RNA: GGGAGUUCUACAGUCCGACGAUCUGUUGGUUGGUGCUUGGCCUGACCAAAGGCCUUGCACAGCUCCUCCACGCUGUGUCCGUCCACGAUGAUGGUGUGCCAGCCAAAGGCCUCACAGCGCUUCUGGUAGAUGUCCACCUGGUGCAACAGAGGAUUGAGCAUCA
B5: chr2:26332712:26332713:+_ENSG00000084733_ENST00000264710|hu_hu|motif|central (ssRNA)
RNA: GGGAGUUCUACAGUCCGACGAUCGUUUCUAAGCCAUUUGCUGAUGUUUUCAAAACUUUUACCAUUGGUGAUGUCAUAUACGGGCAUGAUACCCAUUGCGCCUCUGUAGUAGGAGGUUGUGAUGGUGUGAAAUCGCUCCUGGCCCAACAGAGGAUUGAGCAUCA
B6: chr2:179515052:179515053:+_ENSMUSG00000000305_ENSMUST00000000314|mus_hu|mus_mus_mus_hu_False|28_38 (ssRNA)
RNA: GGGAGUUCUACAGUCCGACGAUCGCUGUCCCAUGCAGUCACCGUGAACGCCACCUGCUCGGAGGGGACCUGCAGCUCCCGGGUGGCGAAGACUGUCCCAUCCGCCCCGACUUUGAAGUCCAUGCUGUUGGUCUCAUAUUGUGUCAACAGAGGAUUGAGCAUCA
B7: chr10:7398381:7398382:+_ENSMUSG00000040034_ENSMUST00000040135|mus_mus|FALSE|FALSE (ssRNA)
RNA: GGGAGUUCUACAGUCCGACGAUCACUUACUAGAGACUGGUGAACACCGGCCUGGUUACUUAAGCUAUGUGACAGGAAAGUACUACUUCUUCCUCCUUGGUGAAAGAGAGAAGACUUUUCAGGUGCAUCUGUGGAGGCAUCCCACAACAGAGGAUUGAGCAUCA
B8: chr6:38652254:38652255:-_ENSG00000124767_ENST00000373365|hu_hu|hu_hu_hu_mus_False|88_88 (ssRNA)
RNA: GGGAGUUCUACAGUCCGACGAUCCGAGAACUUCAUAGCAGGGAAGUCACAUUUUUGCAGGAGGGUCAGUCCAAGAACCCUCGUAUAAAAAUCCAGGGACUUCUUAGGAUCCUUAAUUCUUAGCAUCGUUUGCUGCAGUAGAAACAACAGAGGAUUGAGCAUCA
B9: chr12:39756943:39756944:-_ENSG00000139116_ENST00000544797|hu_mus|hu_hu_hu_mus_False|88_108 (ssRNA)
RNA: GGGAGUUCUACAGUCCGACGAUCGGUUUGGCUAUUACCCCCAAGGGAAUCCUGUAGGAGUCUUGUCAGCUUAGAGUCUCUGUAAGGGACAUGGGUGGCUCUCUUGCUCUUGUCCCCCAAGGCGCUGAUUACAUUCCCAAGAGCCAACAGAGGAUUGAGCAUCA
B10: chr3:49759264:49759265:-_ENSG00000173540_ENST00000308388|hu_mus|motif|central (ssRNA)
RNA: GGGAGUUCUACAGUCCGACGAUCCCCGAUAGACUUGUGGGGCAGCACGCUGGCUCCAUUGAGGUACAGUUCAUCAUUAACGGUGACAUCUUCACCCAGCACUGUUACAUUCUCCAUGCGCACCCAUUGGCCCACACGGCAGCGCAACAGAGGAUUGAGCAUCA
B11: chr1:187193504:187193505:+_ENSMUSG00000026615_ENSMUST00000046514|mus_mus|motif|central (ssRNA)
RNA: GGGAGUUCUACAGUCCGACGAUCAUCAAUCUCAGUGUGCUCCAUCAGGUUAGUCCCAUACAGCCCAGACGUAGUUGCAAUUCGGGCCAGGUAGCGCAGGAUUGAAUUCACGUCAGUGAAUGCCACAGUCUCAGAAACCCGAAGCAACAGAGGAUUGAGCAUCA
B12: chr3:176767854:176767855:-_ENSG00000177565_ENST00000430069|hu_hu|hu_hu_hu_mus_False|8_48 (ssRNA)
RNA: GGGAGUUCUACAGUCCGACGAUCGACAUCCUUGUUACUGGGCACGUCCUGCCCUCCUUCCCGUAUGCAGUGUCUAAGCACGAGCUGUGUAGAGCCACUCGUGCUGUUCUCACUGAGGUUCCAGAUUCUUGCUGUUGAGUCUCCCAACAGAGGAUUGAGCAUCA
B13: chr5:145543945:145543946:-_ENSG00000133706_ENST00000545646|hu_hu|hu_hu_hu_mus_True|1_38 (ssRNA)
RNA: GGGAGUUCUACAGUCCGACGAUCCUGAACGGCCAGUGGUGGGAAAUAAUCAAGCCAGUGCUCUGCUUCAGAAAACUUCACUAUGUCGUCAUCAGAGAGGCCAAGGGAUUUCAUAAUGUCCCACUGGUACUUAGAAGAUCCAGCCAACAGAGGAUUGAGCAUCA
B14: chr20:5919097:5919098:-_ENSG00000089195_ENST00000203001|hu_mus|FALSE|FALSE (ssRNA)
RNA: GGGAGUUCUACAGUCCGACGAUCACACACACUCUUAGGACAAGGAGAAAAUUUUAGUGAUGACACUUAAAGUGUAAUUACCAGCUGCAGAAUGCCUUGGAACAAACAUUAAUCUCCUAAGAGUUAAGAGGCAGAUUCCAUGCACAACAGAGGAUUGAGCAUCA

biological target: T1, UNK ZnF1-3; experiment: nsRBNS (natural sequence RNA bind-n-seq); RBNS binding buffer (assumed for nsRBNS): 25 mM Tris pH 7.5, 150 mM KCl, 3 mM MgCl2, 0.01% Triton X-100, 500 ug/ml BSA, 20 U/ml SUPERase-In, 4 C; UNK is unkempt and MSI1 is Musashi-1; names of the RNAs are library labels; protein concentration not given here; high values mean tight binding

Row | Binder | binding signal [enrichment R]
1 | B1 | 1.02
2 | B2 | 0.661
3 | B3 | 0.911
4 | B4 | 0.34
5 | B5 | 0.588
6 | B6 | 0.733
7 | B7 | 0.906
8 | B8 | 1.01
9 | B9 | 0.907
10 | B10 | 0.927
11 | B11 | 1.19
12 | B12 | 0.456
13 | B13 | 1.4
14 | B14 | 1.23

Reference: article PMC12136788
